Source: PMC6919601, “Identification of Plasmodium dipeptidyl aminopeptidase allosteric inhibitors by high throughput screening” (PLoS ONE, 2019)
Several values for one entry are separate records, joined by “and”; a condition that tells them apart may be missing. Equal values may be shown once. Out of some 110,000 compounds screened, about 230 (0.21%) showed an effect of 50% or more. The list shows a part of the results.

Target: DPAP1 (Plasmodium falciparum, UniProt Q8IIJ9)
Assay: primary screen, percent inhibition; read by cleavage of a fluorogenic dipeptide substrate; higher = more effect of the substance
Parameters: species or system P. falciparum D10 trophozoite lysates; single well
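Note: 30 min substrate incubation versus DMSO and 10 µM JCP410 controls.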

DPAP1, sequence (Q8IIJ9 whole entry, looked up): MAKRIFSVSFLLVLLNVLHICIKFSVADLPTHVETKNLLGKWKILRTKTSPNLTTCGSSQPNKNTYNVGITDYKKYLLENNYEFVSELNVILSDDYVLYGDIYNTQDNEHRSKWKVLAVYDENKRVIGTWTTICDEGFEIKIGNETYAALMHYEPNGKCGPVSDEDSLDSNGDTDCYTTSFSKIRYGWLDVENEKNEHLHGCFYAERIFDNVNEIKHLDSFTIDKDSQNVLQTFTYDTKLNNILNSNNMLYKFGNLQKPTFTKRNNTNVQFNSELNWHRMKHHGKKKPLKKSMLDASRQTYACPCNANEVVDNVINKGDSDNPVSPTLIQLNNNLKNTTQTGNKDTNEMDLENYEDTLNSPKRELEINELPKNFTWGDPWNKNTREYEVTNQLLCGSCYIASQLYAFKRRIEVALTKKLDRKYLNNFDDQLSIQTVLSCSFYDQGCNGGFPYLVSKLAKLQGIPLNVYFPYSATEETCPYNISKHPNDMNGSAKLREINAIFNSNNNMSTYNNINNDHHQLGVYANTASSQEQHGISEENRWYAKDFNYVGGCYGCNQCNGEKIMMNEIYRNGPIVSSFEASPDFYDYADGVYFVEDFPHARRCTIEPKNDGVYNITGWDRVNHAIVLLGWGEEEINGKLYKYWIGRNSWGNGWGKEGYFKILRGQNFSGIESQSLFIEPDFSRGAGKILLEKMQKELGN

Structure (SMILES)	% Inhibition @ 10 uM
CC(C)CNS(=O)(=O)c1ccc(CCC(=O)N2CCN(c3cccc(Cl)c3)CC2)cc1	-5.29%
CC(O)CNc1nc2c(c(=O)n(Cc3ccccc3)c(=O)n2C)n1C (centres unmarked)	0.279%
O=C(NCc1nc2ccccc2[nH]1)c1cccnc1	-2.28%
Cc1ccc(-c2c(O)c(=O)/c2=N\CCN2CCCCC2C)cc1 (centres unmarked)	-2.57%
Cc1cc(C)c(S(=O)(=O)NCC(=O)NC(C)(C)C)c(C)c1	0.964%
COCC/N=c1\cc(-c2ccccc2)oc2ccc(Br)cc12	0.561%
CCOc1cc(C2C(C(=O)c3ccc(OC)cc3)=C(O)C(=O)N2Cc2ccco2)ccc1O (centres unmarked)	1.64%
OC1CCCN(Cc2ccc(-c3cccc(Cl)c3)o2)C1 (centres unmarked)	1.9%
COc1ncccc1C(=O)NCC(CC(=O)O)c1ccc(Cl)cc1 (centres unmarked)	-3.16%
COc1ccc(N2CCN(C(=O)NC3(C(=O)NCC#N)CCCCC3)CC2)cc1	4.63%
Cc1cc(C)c2c3c(sc2n1)C(c1c(F)cccc1Cl)C(C#N)=C(N)O3 (centres unmarked)	4.54%
O=C(/C=C/c1ccccc1)Nc1nnc(Cc2ccc(Cl)cc2)s1	19.6%
CCOC(=O)c1c(C)n(-c2ccccc2)c2cc(Br)c(O)cc12	-1.18%
O=C(CCCn1c(=O)[nH]c2ccsc2c1=O)N1CC=C(c2ccccc2)CC1	-0.972%
COc1cc(CNC2CCN(C(C)=O)CC2)cc(OC)c1	-7.18%
O=C(c1csc2ccccc12)N1CCN(c2ncccn2)CC1	5.29%
Cc1nc(-c2ccc(C(=O)Nc3ccccc3F)cc2)cs1	2.06%
CC1CCN(C(=O)c2cc(-c3cccc(O)c3)on2)CC1	-3.12%
CN1C(N)=NC(=O)/C1=C/c1cc(Br)c(O)c(Br)c1	-4.51%
O=C(/C=C/c1ccco1)Nc1cccnc1	-6.91%
CC(C)OCC(O)CN1CCN(c2ccccc2)CC1 (centres unmarked)	-0.884% and 4.08%
Cc1ccccc1OCCCc1c(C)n[nH]c1C	0.634%
Oc1ccccc1-c1n[nH]c(-c2ccccc2O)n1	-1.56%
CC(C)c1ccc(NC(=O)CN(c2cccc(F)c2)S(C)(=O)=O)cc1	-5.51%
O=C(CN1CCc2ccccc2C1)Nc1ccc(Oc2ccccc2)cc1	-1.17%
O=C(CNS(=O)(=O)c1cc(Cl)ccc1Cl)Nc1ccc(F)cc1	-2.83%
COC(=O)c1ccc(CSc2nc3ccncc3[nH]2)cc1	1.72%
Cc1ccc(C(O)C(=O)c2ccccc2)o1 (centres unmarked)	0.0289%
O=C(Nc1ccccc1)C(C(=O)c1ccccc1)S(=O)(=O)c1ccccc1 (centres unmarked)	-1.45%
